By EC50 is commonly meant the concentration needed to bring the measured effect to its halfway point.

Structures are written as SMILES.

The values that follow come from patent US20210002295A1, “SMALL MOLECULE DEGRADERS THAT RECRUIT DCAF15” (Dana-Farber Cancer Institute, Inc., priority 2017, published 2021).

The target of this assay is biotinylated DCAF15 and Bodipy-FL-labelled Bromodomain 1 (BD1) in BRD4 (Homo sapiens, UniProt O60885+Q66K64). Nature of the assay: Assay A time-resolved fluorescence resonance energy transfer (TR-FRET). Type of assay: binding. To be noted: DCAF15 150 nM, BRD4 BD1 150 nM, Tb-streptavidin 2 nM.
With `Cc1sc2c(c1C)C(c1ccc(Cl)cc1)=N[C@@H](CC(=O)NCCOCCOCCOCCOCCOCCNC(=O)c1ccc(S(=O)(=O)Nc3ccc(C)c4c(C#N)c[nH]c34)cc1)c1nnc(C)n1-2`, the EC50 was above 10 µM.

As for `Cc1sc2c(c1C)C(c1ccc(Cl)cc1)=N[C@@H](CC(=O)NCCOCCOCCNC(=O)c1ccc(S(=O)(=O)Nc3ccc(C)c4c(C#N)c[nH]c34)cc1)c1nnc(C)n1-2`, the EC50 was above 10 µM.

Compound `Cc1sc2c(c1C)C(c1ccc(Cl)cc1)=N[C@@H](CC(=O)NCCCCCCNC(=O)c1ccc(S(=O)(=O)Nc3ccc(C)c4c(C#N)c[nH]c34)cc1)c1nnc(C)n1-2` registered an EC50 above 10 µM.

Compound `Cc1sc2c(c1C)C(c1ccc(Cl)cc1)=N[C@@H](CC(=O)NCCOCCOCCOCCOCCNC(=O)c1cccc(S(=O)(=O)Nc3ccc(C)c4c(C#N)c[nH]c34)c1)c1nnc(C)n1-2` registered an EC50 above 10 µM.

For the compound `Cc1sc2c(c1C)C(c1ccc(Cl)cc1)=N[C@@H](CC(=O)NCCOCCOCCOCCOCCOCCNC(=O)c1cccc(S(=O)(=O)Nc3ccc(C)c4c(C#N)c[nH]c34)c1)c1nnc(C)n1-2`, the EC50 was above 10 µM.

For the compound `Cc1sc2c(c1C)C(c1ccc(Cl)cc1)=N[C@@H](CC(=O)NCCOCCOCCOCCNC(=O)c1ccc(S(=O)(=O)Nc3ccc(C)c4c(C#N)c[nH]c34)cc1)c1nnc(C)n1-2`, the EC50 is above 10 µM.

The compound `Cc1sc2c(c1C)C(c1ccc(Cl)cc1)=N[C@@H](CC(=O)NCCOCCOCCNC(=O)c1cccc(S(=O)(=O)Nc3ccc(C)c4c(C#N)c[nH]c34)c1)c1nnc(C)n1-2` gave a concentration giving a half-maximal response (EC50) above 10 µM.

`Cc1sc2c(c1C)C(c1ccc(Cl)cc1)=N[C@@H](CC(=O)NCCOCCOCCOCCNC(=O)c1cccc(S(=O)(=O)Nc3ccc(C)c4c(C#N)c[nH]c34)c1)c1nnc(C)n1-2` displayed an EC50 above 10 µM.
